{"source": "PubChem BioAssay AID504832", "about": "(National Center for Advancing Translational Sciences (NCATS), 2011)", "note": "Screen size: about 310,000 compounds; about 18,000 (5.8%) were called active. The inconclusive results got no clear call from the source; some entries with a clear call stand among them for comparison. Calls come from the whole dose curve; as a rule, active = well fitted inhibition curve with a large enough effect; inconclusive = small, poorly fitted or top-dose-only effect, or another doubt; inactive = no such curve, though single readings can be large or run the other way. No potency is given beside an inconclusive call; the fits are too rough. Potency is the fitted concentration of half-maximal effect; tags give direction and shape of the fitted curve.", "data": [{"assay": "Primary qHTS for delayed death inhibitors of the malarial parasite plastid, 48 hour incubation", "details": "P. falciparum luciferase growth in erythrocytes; series mostly up to 28.7 µM", "in_short": "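Parasite viability was followed by luminescence of a genomically integrated firefly luciferase. Cultures held 0.1% parasitemia at 2% hematocrit (final), incubated under 5% CO2 at 37 C.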", "values": [{"smiles": "O=C(O)CC1OCC=C2CN3CCC45C6=CC(=O)C(=O)C([N+](=O)[O-])=C6NC4C1C2CC35", "note": "(stereo unspecified)", "Potency": "inconclusive [inhibitor, single point]"}, {"smiles": "COc1ccc(CN(C(=O)CN2C(=O)NC3(CCC(C)CC3)C2=O)C(C)Cc2cccs2)cc1", "note": "(stereo unspecified)", "Potency": "active: 9.28 µM"}, {"smiles": "COCc1c(C(=O)N(C)Cc2ccccc2N2CCCC2)oc2ccccc12", "Potency": "inconclusive [inhibitor, single point]"}, {"smiles": "O=C(NCCCN1CCCCCC1)c1cc2c(=O)oc3ccccc3c2s1", "Potency": "active: 2.94 µM"}, {"smiles": "O=C(NCCc1ccc(F)cc1)c1ccc(Cl)c(S(=O)(=O)N2CCOCC2)c1", "Potency": "active: 9.28 µM"}, {"smiles": "CCc1cccc(NS(=O)(=O)c2c(C)[nH]c(=O)[nH]c2=O)c1", "Potency": "inactive"}, {"smiles": "Nn1c(SCC(=O)Nc2cc(C(F)(F)F)ccc2Cl)nncc1=O", "Potency": "active: 11.7 µM"}, {"smiles": "Cc1c(C#N)c(NC(=O)CCl)n(Cc2cccs2)c1C", "Potency": "active: 10.4 µM"}, {"smiles": "CCC1(C)CC(CCN(Cc2ccco2)C(C)=O)(c2ccccc2)CCO1", "note": "(stereo unspecified)", "Potency": "inconclusive [inhibitor, partial curve]"}, {"smiles": "CCOc1ccc(NC(=S)NCc2ccco2)cc1", "Potency": "inactive"}, {"smiles": "CCCCCC(O)(c1ccc(OC)cc1)C(CN1CCOCC1)c1ccccc1", "note": "(stereo unspecified)", "Potency": "active: 1.65 µM"}, {"smiles": "COc1ccc(C(=O)N/C(=C\\c2ccc(Cl)cc2)C(=O)NCC2CCCO2)cc1", "note": "(stereo unspecified)", "Potency": "inconclusive [inhibitor, single point]"}, {"smiles": "O=C(Nc1ccc(Nc2ccccc2)cc1)c1ccc(Br)o1", "Potency": "inactive"}, {"smiles": "CC(C)(C)C(=O)Nc1ccc(C(=O)OC2CCCCC2)cc1", "Potency": "inactive"}, {"smiles": "CC1(C)Cc2c(sc3c2c(=N)n(Cc2ccco2)c(=O)n3Cc2ccccc2)CO1", "Potency": "active: 9.28 µM"}, {"smiles": "CC(=O)Nc1ccc(SCC(=O)Nc2ccc(Cl)cn2)cc1", "Potency": "inactive"}, {"smiles": "N/C(Cc1cccs1)=N\\OC(=O)COc1ccc(Br)cc1Cl", "Potency": "inactive"}, {"smiles": "CCOC(=O)CCSCC(=O)Nc1cc(C)on1", "Potency": "inconclusive [inhibitor, single point]"}, {"smiles": "Cn1c2ccccc2c(=O)c2c(=O)n(Cc3ccccc3)c(-c3ccc(F)cc3)nc21", "Potency": "inconclusive [inhibitor, partial curve, poor fit]"}, {"smiles": "Cc1ccc(-c2csc(N3CCC(C(N)=O)CC3)n2)cc1", "Potency": "inconclusive [activator, partial curve]"}, {"smiles": "Cc1[nH]nc2c1C(c1ccc3c(c1)OCO3)C(C#N)=C(N)O2", "note": "(stereo unspecified)", "Potency": "inactive"}, {"smiles": "COc1ccc(C2C(C(=O)c3ccc(C)o3)=C(O)C(=O)N2Cc2cccnc2)cc1", "note": "(stereo unspecified)", "Potency": "inconclusive [inhibitor, full curve, poor fit]"}, {"smiles": "O=C1CSC(c2cccnc2)N1Cc1ccc(Cl)cc1Cl", "note": "(stereo unspecified)", "Potency": "inconclusive [inhibitor, single point]"}, {"smiles": "C=CCn1c(=O)c2c(nc3n2CCCN3CCc2ccc(OC)c(OC)c2)n(C)c1=O", "Potency": "inactive"}, {"smiles": "CC(=O)Nc1ccc(Oc2nc(C(F)(F)F)nc3ccccc23)cc1", "Potency": "inconclusive [inhibitor, single point]"}, {"smiles": "CCc1nnc2sc(-c3ccc(NC(=O)c4ccco4)cc3)nn12", "Potency": "inconclusive [inhibitor, single point]"}, {"smiles": "Cc1cc(Nc2ccccc2Cl)nc(-c2ccccc2O)n1", "Potency": "inconclusive [inhibitor, single point]"}, {"smiles": "COc1cc2c(C)nc3c(cnn3-c3ccccc3)c2cc1OC", "Potency": "inactive"}, {"smiles": "COc1ccc(CNC(=O)CSc2nc3ccc(N)cc3s2)cc1", "Potency": "inactive"}, {"smiles": "CC(=O)NC(Cc1ccccc1F)C(=O)NC1CCN(c2ncccc2[N+](=O)[O-])CC1", "note": "(stereo unspecified)", "Potency": "inconclusive [inhibitor, partial curve, poor fit]"}, {"smiles": "CC(=O)Nc1ccc(NC(=O)c2ccc(Cn3cc(Cl)cn3)cc2)cc1", "Potency": "inactive"}, {"smiles": "Cc1nc2ccccc2c(=O)n1/N=C/c1cn(-c2ccccc2)nc1-c1cccs1", "Potency": "inconclusive [inhibitor, single point]"}, {"smiles": "Cc1ccc(-c2csc(NC(=O)CN3C(=O)CCC3=O)n2)cc1", "Potency": "inconclusive [inhibitor, full curve, poor fit]"}, {"smiles": "COc1ccc(CC(=O)OCC(=O)N2CCN(S(=O)(=O)c3ccc(C)cc3C)CC2)cc1OC", "Potency": "inconclusive [inhibitor, single point]"}, {"smiles": "CC1(C)CCc2c([nH]c3ccccc3c2=O)O1", "Potency": "inconclusive [inhibitor, partial curve, poor fit]"}, {"smiles": "CCc1cc2c(=O)c(-c3nc4ccccc4n3C)coc2c(CN2CCN(C)CC2)c1O", "Potency": "inconclusive [inhibitor, single point]"}, {"smiles": "O=C(COc1ccc(Cl)cc1Cl)Nc1ccc(CN2CCCCC2)cc1", "Potency": "inconclusive [inhibitor, single point]"}, {"smiles": "O=S(=O)(c1cccs1)N1CCN(Cc2nc3ccccc3s2)CC1", "Potency": "inconclusive [inhibitor, single point]"}, {"smiles": "COc1cccc(OCCn2ccnc2)c1", "Potency": "inconclusive [inhibitor, single point]"}, {"smiles": "CN1CCC(NC(=O)Nc2ccc(Br)cc2)CC1", "Potency": "inconclusive [inhibitor, single point]"}, {"smiles": "CC1(C)Cc2c(c(N3CCOCC3)nc3sc4c(NCc5ccco5)nnnc4c23)CS1", "Potency": "inconclusive [inhibitor, single point]"}, {"smiles": "Cc1ccc(OCc2ccc([N+](=O)[O-])cc2)c([N+](=O)[O-])n1", "Potency": "inactive"}, {"smiles": "CC(C)(C)c1cc(C(=O)NNc2cccc(Cl)c2)n(Cc2ccccc2)n1", "Potency": "inconclusive [inhibitor, partial curve, poor fit]"}, {"smiles": "Cc1cccc(C)c1NC1=NC2(CCCCC2)N=C(N)N1", "Potency": "inconclusive [inhibitor, partial curve]"}, {"smiles": "O=C(O)[C@H]1CCCN1C(=O)c1ccccc1N1C(=O)[C@@H]2Cc3c([nH]c4ccccc34)C(c3cccc(Cl)c3)N2C1=O", "note": "(stereo partly specified)", "Potency": "inconclusive [inhibitor, single point]"}, {"smiles": "O=C(NCCC1CCCCN1S(=O)(=O)c1cccs1)C(=O)NCc1ccccc1", "note": "(stereo unspecified)", "Potency": "inconclusive [inhibitor, single point]"}, {"smiles": "Cc1c(C(=O)/C=C/N(C)C)nnn1-c1ccc(Cl)cc1C#N", "Potency": "inconclusive [inhibitor, partial curve, poor fit]"}, {"smiles": "Cc1cc(C)nc(N2CCCC(C(=O)Nc3cccc(Cl)c3)C2)n1", "note": "(stereo unspecified)", "Potency": "inconclusive [inhibitor, partial curve, poor fit]"}, {"smiles": "C/C(=N/Nc1nc(-c2ccccc2F)nc2ccccc12)c1ccccc1O", "Potency": "inconclusive [inhibitor, single point]"}, {"smiles": "Cc1[nH]c2ccccc2c1C(=O)/C=C/c1ccccc1", "Potency": "inactive"}, {"smiles": "COc1ccccc1NC(=O)NNC(=O)CCN1CCOCC1", "Potency": "inconclusive [inhibitor, partial curve, poor fit]"}, {"smiles": "CCCCCCCc1ccc(C2NC(=S)NC3=C2C(=O)c2ccccc23)cc1", "note": "(stereo unspecified)", "Potency": "inactive"}, {"smiles": "O=C(Nc1ccc(Br)cc1)c1cc([N+](=O)[O-])cc([N+](=O)[O-])c1", "Potency": "active: 2.62 µM"}, {"smiles": "CCOC(=O)c1cnc(-n2nc(C)cc2C)nc1NC1CCCCC1", "Potency": "active: 1.65 µM"}, {"smiles": "CCC(C)(C)N(C(=O)CCC(=O)Nc1cc(C)on1)C(C(=O)NC(C)(C)C)c1ccc(OC)cc1", "note": "(stereo unspecified)", "Potency": "inconclusive [inhibitor, partial curve, poor fit]"}, {"smiles": "CCc1cccc(C)c1NC(=O)CN(C)Cc1ccccc1F", "Potency": "inactive"}, {"smiles": "CC(=O)c1ccc(N2C(=O)C3C(C2=O)C(C(=O)c2ccc(Cl)cc2)N2CCCC32)cc1", "note": "(stereo unspecified)", "Potency": "inconclusive [inhibitor, single point]"}, {"smiles": "Cc1ccc[n+](CC(=O)Nc2ccc(C)c(C)c2)c1", "Potency": "inactive"}, {"smiles": "O=C(Cn1c(NCCO)nc2ccccc21)NCCc1ccc(F)cc1", "Potency": "inconclusive [inhibitor, single point]"}, {"smiles": "COc1ccccc1CN(C)c1ccc(S(=O)(=O)N2CCN(C)CC2)cn1", "Potency": "inconclusive [inhibitor, partial curve, poor fit]"}, {"smiles": "CC(=O)N1CC23C=CC(CC2CC12CCCCCC2)O3", "note": "(stereo unspecified)", "Potency": "inactive"}, {"smiles": "CCCC(CCC)C(=O)Nc1cccc(-c2cn3c(n2)SCC3)c1", "Potency": "inconclusive [inhibitor, single point]"}, {"smiles": "Cc1cc(OCC(=O)N2CCC(C(=O)O)(c3ccccc3)CC2)c2c(C)c(C)c(=O)oc2c1", "Potency": "inconclusive [inhibitor, single point]"}, {"smiles": "O=C(/C=C/c1cccc(Cl)c1)NCCc1ccccc1", "Potency": "inactive"}, {"smiles": "Cc1sc(-n2c(C)ccc2C)c(C#N)c1C", "Potency": "inactive"}, {"smiles": "COc1cccc(NC(=S)NCc2cccnc2)c1", "Potency": "inactive"}, {"smiles": "COc1cc(/C=C2\\SC(=O)NC2=O)ccc1Oc1ccc([N+](=O)[O-])cc1[N+](=O)[O-]", "Potency": "inconclusive [inhibitor, partial curve, poor fit]"}, {"smiles": "COC(=O)C(C)Sc1nc2c(c(=O)n1-c1ccccc1)SCC2", "note": "(stereo unspecified)", "Potency": "inconclusive [inhibitor, partial curve]"}, {"smiles": "CC(NC(=O)Cn1c(NCCO)nc2ccccc21)C1CC2CCC1C2", "note": "(stereo unspecified)", "Potency": "inconclusive [inhibitor, single point]"}, {"smiles": "COCCCN(C(=S)Nc1cc(Cl)cc(Cl)c1)C(C)c1ccncc1", "note": "(stereo unspecified)", "Potency": "inconclusive [inhibitor, single point]"}, {"smiles": "O=C(CN1CCOCC1)N/N=C/c1ccc(-c2ccc(Br)cc2)o1", "Potency": "inconclusive [inhibitor, single point]"}]}]}
